# PubChem BioAssay AID2147 (National Center for Advancing Translational Sciences (NCATS), 2009)
# The campaign covered roughly 230,000 compounds. About 3,600 (1.6%) were called active. The inconclusive results got no clear call from the source; some entries with a clear call stand among them for comparison. Calls come from the whole dose curve; as a rule, active = well fitted inhibition curve with a large enough effect (not every such curve was filed as active); inconclusive = small, poorly fitted or top-dose-only effect, or another doubt; inactive = no such curve, though single readings can be large or run the other way. Potencies beside an inconclusive call are fits to weak or partial responses and may not hold up.
# Biological target: Lysine-specific demethylase 4E (Homo sapiens) (UniProt B2RXH2)
# UniProt B2RXH2, sequence (B2RXH2 whole entry, looked up, the tested form may be a part): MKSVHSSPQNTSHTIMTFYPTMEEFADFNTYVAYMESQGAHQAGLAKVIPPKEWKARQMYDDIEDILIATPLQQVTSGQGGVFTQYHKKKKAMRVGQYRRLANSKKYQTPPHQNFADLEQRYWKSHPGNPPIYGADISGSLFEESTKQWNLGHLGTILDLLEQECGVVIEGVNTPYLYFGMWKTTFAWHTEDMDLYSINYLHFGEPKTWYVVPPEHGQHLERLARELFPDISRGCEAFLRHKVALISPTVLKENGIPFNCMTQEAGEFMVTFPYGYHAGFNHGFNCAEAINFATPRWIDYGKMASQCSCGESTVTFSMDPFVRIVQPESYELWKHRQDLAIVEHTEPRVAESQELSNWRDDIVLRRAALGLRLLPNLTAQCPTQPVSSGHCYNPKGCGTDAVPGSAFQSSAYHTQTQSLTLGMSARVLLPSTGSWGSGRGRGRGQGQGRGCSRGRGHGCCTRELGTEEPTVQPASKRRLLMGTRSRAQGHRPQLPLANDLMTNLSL
# Test: qHTS Assay for Inhibitors of Human Jumonji Domain Containing 2E (JMJD2E)
# Conditions: JMJD2E catalytic domain, FDH-coupled NADH fluorescence (FDH is formaldehyde dehydrogenase); series mostly up to 57.1 µM; activity change, negative = inhibition: at the top concentration
# Note: nearly all actives have a fitted effect of over 50% in size.
# Potency is the fitted concentration of half-maximal effect; tags give direction and shape of the fitted curve.
# 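Throughout, for activity change, negative = inhibition: 0% = wells with enzyme and -100% = buffer wells without enzyme.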
Compound,"activity change, negative = inhibition",Potency
CCOC(=O)C1=C(C)NC(=S)NC1c1ccc(-c2ccc(Cl)cc2)o1 (stereo not given),inactive: -0.0477%,–
Cn1nc(C(=O)Nc2ccc(S(=O)(=O)NCc3ccco3)cc2)c2ccccc2c1=O,inactive: -1.31%,–
COc1ccccc1NC(=O)c1sc2ncn(Cc3ccccc3C)c(=O)c2c1C,–,"inconclusive: 4.47 µM [inhibitor, full curve]"
CCC1OC23CCCCC2C(C#N)(C(=N)O3)C1(C#N)C#N (stereo not given),–,"inconclusive: 31.6 µM [inhibitor, partial curve]"
COc1cccc(C(=O)Nc2nnc(-c3cccs3)o2)c1,–,"inconclusive: 28.2 µM [inhibitor, single point]"
CCCSc1nc(C)c(-c2csc(C(C#N)=C3CCCC3)n2)cc1C#N,–,"inconclusive: 39.8 µM [inhibitor, single point]"
CCNc1nc(NCC)nc(N/N=C/c2ccc(N(C)C)cc2)n1,–,"inconclusive: 28.2 µM [inhibitor, partial curve]"
c1ccc(CSCc2cn3ccccc3n2)cc1,–,"inconclusive: 28.2 µM [inhibitor, single point]"
CN(C)CCOc1cccc(Cl)c1,–,active: 22.4 µM
O=C1/C(=C/c2ccc(O)c(O)c2)SC(=S)N1Nc1ccccc1,–,"inconclusive: 35.5 µM [inhibitor, single point]"
CCCN(CCc1ccccc1)C1CCc2c(O)cccc2C1 (stereo not given),inactive: 1.38%,–
COc1ccccc1N1CCN(C(=S)Nc2ccc3nc(N4CCOCC4)cc(C)c3c2)CC1,–,"inconclusive: 14.1 µM [inhibitor, partial curve]"
Cc1cc(/C=N/Nc2ccc([N+](=O)[O-])cn2)c(C)n1-c1ccccc1,inactive: 6.15%,–
COc1ccccc1N1CCN(C(=O)c2oc3cc(C)cc(C)c3c2C)CC1,inactive: -8.87%,–
CC(C)(C)n1nc(-c2ccc(F)cc2)c2c(N)ncnc21,–,"inconclusive: 39.8 µM [inhibitor, single point]"
Cn1cccc1Cc1nnc(SCC(=O)Nc2ccccc2)n1-c1ccc(F)cc1,–,"inconclusive: 35.5 µM [inhibitor, single point]"
COc1cccc(C(=O)CSc2nnnn2C)c1,inactive: -0.852%,–
Nc1nc(SCc2ccc(Cl)cc2Cl)nc2nc3c(cc12)CCCC3,–,"inconclusive: 8.91 µM [inhibitor, partial curve]"
O=c1c2[nH]c3cccc(Cl)c3c2ncn1CC1CCCO1 (stereo not given),–,"inconclusive: 35.5 µM [inhibitor, single point]"
Cc1cc(/C=C(\C#N)C(=O)NC2CC2)c(C)[nH]1,–,"inconclusive: 39.8 µM [inhibitor, single point]"
O=C(c1ccccc1)c1cncc(Br)c1,inactive: 2.09%,–
COc1ccc(Cl)cc1NC(=O)CN(C)CC(=O)Nc1ccc(C)cc1Br,inactive: 8.58%,–
CCOC(=O)NC(=O)COC(=O)c1cccc2ccccc12,–,"inconclusive: 35.5 µM [inhibitor, partial curve]"
S=c1[nH]nc(-c2cc3ccccc3o2)n1Cc1ccccc1,–,"inconclusive: 25.1 µM [inhibitor, partial curve]"
CCOC(=O)C(C)Sc1nc(-c2cccs2)ccc1C#N (stereo not given),–,"inconclusive: 28.2 µM [inhibitor, partial curve]"

Compound,"activity change, negative = inhibition",Potency
O=C(C(=S)N1CCOCC1)c1c[nH]c2ccccc12,inactive: -4.53%,–
CC(c1ccccc1)N1CCn2c(nc3cc(NS(C)(=O)=O)ccc32)C1 (stereo not given),–,"inconclusive: 31.6 µM [inhibitor, partial curve]"
CCNc1nnc(-c2ccccc2OC)s1,–,"inconclusive: 31.6 µM [inhibitor, partial curve]"
Brc1cc(Br)c2nc(-c3cccs3)ccc2c1,–,"inconclusive: 25.1 µM [inhibitor, single point]"
CCn1c(CSc2nc3ccccc3s2)nnc1SCC(N)=O,–,"inconclusive: 39.8 µM [inhibitor, single point]"
OCc1cn(-c2ccc(Cl)cc2)nn1,–,"inconclusive: 28.2 µM [inhibitor, single point]"
Cc1ccc(/C=N/n2c(-c3ccncc3)n[nH]c2=S)o1,inactive: -23.5%,–
CCc1cc(=O)oc2cc(OC(C)=O)cc(OC(C)=O)c12,–,"inconclusive: 28.2 µM [inhibitor, partial curve]"
CCN(CC)c1ccc(S(=O)(=O)N2CCOCC2)cc1NC(=O)CN1CCN(Cc2ccccc2)CC1,–,active: 28.2 µM
Cc1nn(-c2ccccc2)c(C)c1NC(=O)c1cccs1,inactive: 5.05%,–
COC(=O)c1ccccc1NC(=O)CN1CCN(c2ccccn2)CC1,inactive: 0.39%,–
CCCCNC(=S)NCc1ccc2[nH]c3c(c2c1)CCCC3,inactive: -10.5%,–
O=c1oc2c(CN3CCN(CCO)CC3)c(O)ccc2cc1-c1ccccn1,–,"inconclusive: 7.94 µM [inhibitor, partial curve]"
NC(=O)CC1Nc2cccc3cccc(c23)NC1=O (stereo not given),inactive: -2.33%,–
CCN(Cc1cc2ccccc2[nH]c1=O)C(=O)C1CCCCC1,–,"inconclusive: 35.5 µM [inhibitor, single point]"
S=C(NC1CC1)N1CCc2ccccc2C1,inactive: 0.32%,–
CCCn1c(Nc2nc3ccccc3n2C)nc2ccccc21,–,"inconclusive: 37.7 µM [inhibitor, single point]"
CCc1cc(-c2[nH]ncc2-c2nc3ccccc3n2C)c(O)cc1O,–,"inconclusive: 39.8 µM [inhibitor, single point]"
CC(=O)Nc1ccc(S(=O)(=O)Nc2nc3ccccc3nc2Nc2ccccc2)cc1,–,"inconclusive: 12.6 µM [inhibitor, partial curve]"
CCS(=O)(=O)Nc1ccc(-c2nc3cccnc3s2)cc1,–,"inconclusive: 28.2 µM [inhibitor, partial curve]"
CN(C)c1ccc(P(=O)(OC2CCCCC2)C(O)c2ccncc2)cc1 (stereo not given),–,active: 22.4 µM
CCOc1ccc(C(=O)CSc2nnc(N)s2)cc1,inactive: 8.65%,–
O=C(CSCc1ccc(Cl)cc1)N/N=C/c1ccc(OCC(=O)Nc2ccccc2)cc1,inactive: 2.51%,–
COc1ccc(-c2csc(COC(=O)C(C)(C)C)n2)cc1,inactive: 3.71%,–
COc1ccc(-n2c(C)cc(/C=N/Nc3nc(N4CCOCC4)nc(N4CCOCC4)n3)c2C)cc1,–,"inconclusive: 28.2 µM [inhibitor, single point]"

Compound,"activity change, negative = inhibition",Potency
COc1ccc(C(=O)Nc2nc3ccc(S(C)(=O)=O)cc3s2)cc1,–,"inconclusive: 35.5 µM [inhibitor, single point]"
Cc1cc(N2CCOCC2)n2cc(-c3ccccc3)nc2n1,–,"inconclusive: 31.6 µM [inhibitor, partial curve]"
COc1ccc(/C=C2/NC(=O)N(Cc3ccccc3F)C2=O)cc1OC,–,"inconclusive: 39.8 µM [inhibitor, single point]"
CCC(=O)NC1=C(Cl)C(=O)C(NC(=O)CC)=C(Cl)C1=O,–,"inconclusive: 14.1 µM [inhibitor, partial curve, poor fit]"
Cc1ccc(C(=O)CC2(O)C(=O)N(CCc3ccccc3)c3ccc(Br)cc32)o1 (stereo not given),inactive: -4.38%,–
O=C(Cn1cc(SCc2cccc(Cl)c2)c2ccccc21)N1CCOCC1,inactive: -2.83%,–
CCc1ccccc1-n1c(-c2ccncc2)n[nH]c1=S,inactive: 4.43%,–
CC(=O)c1ccc(N2CCN(C(=O)CN(C)S(=O)(=O)c3cnc[nH]3)CC2)cc1,–,"inconclusive: 39.8 µM [inhibitor, single point]"
O=C(CC12CC3CC(CC(C3)C1)C2)NCC(=O)OCc1cc(=O)oc2ccc3ccccc3c12,–,"inconclusive: 25.1 µM [inhibitor, partial curve]"
COc1cccc(C2Oc3ccccc3C3CC(c4cccs4)=NN32)c1 (stereo not given),–,"inconclusive: 25.1 µM [inhibitor, single point]"
N#CC(c1nc2ccccc2nc1N1CCCC1)S(=O)(=O)c1ccccc1 (stereo not given),–,"inconclusive: 31.6 µM [inhibitor, partial curve]"
COc1cccc(C(=O)N2c3ccccc3Sc3ccccc32)c1,inactive: -13.5%,–
CCOC(=O)c1ccc(-c2ccc(/C=N/NC(=O)Cc3nnc(N)s3)o2)cc1,–,"inconclusive: 7.08 µM [inhibitor, partial curve]"
COC(=O)c1ccccc1NC(=O)Nc1cc(C)cc(C)n1,–,"inconclusive: 35.5 µM [inhibitor, single point]"
COc1ccc2c(c1)C(=O)N(c1ccccc1C)C(=O)C2(C)C,–,"inconclusive: 31.6 µM [inhibitor, partial curve]"
O=C(CCCOc1ccc(Cl)cc1Cl)N/N=C/c1ccc(Cl)cc1,inactive: 9.67%,–
CC1=CC(C)(C)Nc2ccc(OC(=O)C(Cc3ccccc3)N3C(=O)c4ccccc4C3=O)cc21 (stereo not given),inactive: -9.1%,–
Cc1ccccc1NC(=O)C1c2cccc[n+]2CC(=O)N1c1c(C)cccc1C (stereo not given),–,"inconclusive: 31.6 µM [inhibitor, single point]"
C=CCSc1nnc(CNC(=O)c2ccccc2C)n1C(C)C,inactive: 0.0634%,–
Cc1nc2c(-c3ccc(F)cc3)c(C)nn2c(C)c1CCC(=O)Nc1ccccc1,–,"inconclusive: 39.8 µM [inhibitor, single point]"
CCc1ccc2[nH]c(=O)c(CN(CCCN3CCOCC3)C(=O)Nc3ccc(F)cc3)cc2c1,–,"inconclusive: 31.6 µM [inhibitor, single point]"
Cc1cc(C(=O)N/N=C/c2cc(N=Nc3ccccc3)ccc2O)n[nH]1,–,active: 5.01 µM
COc1ccc(CCNc2oc(-c3ccc(OC)c(OC)c3)nc2C#N)cc1,–,"inconclusive: 28.2 µM [inhibitor, partial curve]"
Cc1ccc(-c2ccc(=O)n(CC(=O)NCCN3C(C)CCCC3C)n2)cc1 (stereo not given),–,"inconclusive: 35.5 µM [inhibitor, single point]"
O=C(O)C/C(=C\c1ccc(Cl)cc1)c1nc2ccccc2o1,–,"inconclusive: 31.6 µM [inhibitor, partial curve]"
